The source of these data is patent publication US12479866B2, “Boron-containing rho kinase inhibitors” (Percipiad, Inc., priority 2019, dated 2025).

Each structure is given as a SMILES string.

The assay concerns the target MRCKa (Homo sapiens (Human), UniProt Q5VT25). In words: Radioisotope filter binding kinase assay. It is filed as biochemical. To be noted: 10 uM ATP, read-out: IC50 estimates, MRCKa. Here is the method:
Experiment was conducted by Absorption Systems. […] The radioisotope filter binding assay is considered the gold standard for kinase profiling. The assay directly detects the true product without the use of modified substrates, coupling enzymes, or detection antibodies. Compounds are incubated with kinase, substrate, cofactors, and radioisotope-labeled ATP (^33P-Y-ATP). The reaction mixtures are then spotted onto filter papers, which bind the radioisotope-labeled catalytic product. Unreacted phosphate is removed via washing of the filter papers.
• Prepare kinase-specific substrate in freshly prepared Base Reaction Buffer (20 mM Hepes (pH 7.5), 10 mM MgCl2, 1 mM EGTA, 0.02% Brij35, 0.02 mg/ml BSA, 0.1 mM Na3VO4, 2 mM DTT, 10 µM ATP, and 1% DMSO). • Add kinase enzyme into the substrate solution and gently mix. • Add compounds in DMSO into the kinase reaction mixture by Acoustic technology (Echo550; nanoliter range), incubate for 20 minutes at room temperature. • Add ^33P-ATP (specific activity 10 μCi/μl)) into the reaction mixture to initiate the reaction. • Incubate kinase reaction for 2 hours at room temperature. • Spot reactions onto P81 ion exchange paper. • Detect kinase activity by filter-binding method.

Chain of UniProt Q5VT25 (Q5VT25 whole entry): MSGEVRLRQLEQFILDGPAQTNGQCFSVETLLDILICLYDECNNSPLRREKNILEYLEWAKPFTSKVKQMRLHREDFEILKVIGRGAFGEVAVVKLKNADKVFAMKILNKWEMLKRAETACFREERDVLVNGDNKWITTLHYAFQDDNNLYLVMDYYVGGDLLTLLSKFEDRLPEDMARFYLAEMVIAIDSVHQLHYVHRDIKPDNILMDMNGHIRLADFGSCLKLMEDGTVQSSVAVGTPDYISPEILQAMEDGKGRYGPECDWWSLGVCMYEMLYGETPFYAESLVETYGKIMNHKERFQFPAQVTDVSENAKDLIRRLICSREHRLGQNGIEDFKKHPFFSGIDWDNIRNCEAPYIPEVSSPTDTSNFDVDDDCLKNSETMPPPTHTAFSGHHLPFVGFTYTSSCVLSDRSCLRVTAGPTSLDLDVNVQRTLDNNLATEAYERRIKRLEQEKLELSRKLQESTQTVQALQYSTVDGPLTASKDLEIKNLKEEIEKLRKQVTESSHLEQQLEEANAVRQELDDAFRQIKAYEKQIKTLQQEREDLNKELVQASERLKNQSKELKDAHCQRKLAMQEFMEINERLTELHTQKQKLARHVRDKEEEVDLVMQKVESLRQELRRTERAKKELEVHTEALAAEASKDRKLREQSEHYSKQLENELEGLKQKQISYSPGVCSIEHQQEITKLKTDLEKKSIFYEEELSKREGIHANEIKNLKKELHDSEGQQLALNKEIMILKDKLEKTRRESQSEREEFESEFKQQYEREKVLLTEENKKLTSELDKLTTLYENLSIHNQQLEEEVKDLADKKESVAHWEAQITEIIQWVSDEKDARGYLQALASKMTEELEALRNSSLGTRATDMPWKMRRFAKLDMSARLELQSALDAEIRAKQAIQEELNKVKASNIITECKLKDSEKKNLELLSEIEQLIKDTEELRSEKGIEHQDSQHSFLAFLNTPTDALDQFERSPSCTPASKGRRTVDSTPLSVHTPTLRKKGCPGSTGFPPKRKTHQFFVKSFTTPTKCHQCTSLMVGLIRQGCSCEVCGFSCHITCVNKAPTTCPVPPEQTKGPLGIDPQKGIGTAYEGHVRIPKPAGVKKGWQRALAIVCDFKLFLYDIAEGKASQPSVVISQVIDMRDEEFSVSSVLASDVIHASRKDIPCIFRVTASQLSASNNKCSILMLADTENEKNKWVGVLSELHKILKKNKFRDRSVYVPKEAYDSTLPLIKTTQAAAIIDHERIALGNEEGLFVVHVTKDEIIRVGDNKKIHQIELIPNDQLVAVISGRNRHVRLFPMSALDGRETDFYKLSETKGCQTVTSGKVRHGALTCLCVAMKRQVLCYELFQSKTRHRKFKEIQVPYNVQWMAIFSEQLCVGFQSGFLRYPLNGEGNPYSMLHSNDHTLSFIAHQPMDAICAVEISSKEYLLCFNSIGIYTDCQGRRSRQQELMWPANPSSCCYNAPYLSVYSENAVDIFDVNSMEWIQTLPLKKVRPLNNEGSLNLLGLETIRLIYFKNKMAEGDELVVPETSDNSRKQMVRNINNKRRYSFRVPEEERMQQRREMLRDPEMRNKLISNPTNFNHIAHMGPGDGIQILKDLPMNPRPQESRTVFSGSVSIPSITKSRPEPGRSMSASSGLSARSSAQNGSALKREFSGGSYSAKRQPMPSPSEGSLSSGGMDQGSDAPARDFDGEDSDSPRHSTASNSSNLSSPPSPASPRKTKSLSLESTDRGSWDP

On to `Cl.Cl.NCC(C(=O)Nc1ccc2cnccc2c1)c1ccc(B(O)O)cc1` (centres unmarked) [Compound 10•2HCl], for which the IC50 (usually the concentration that gives 50% inhibition) was above 10 µM.

`Cc1ccc(C(=O)OCc2ccc([C@@H](CN)C(=O)Nc3ccc4cnccc4c3)cc2)c(C)c1` [Netarsudil dimesylate]: the IC50 is above 10 µM.
